Reference: PubChem BioAssay (NCATS)
Results filed as inconclusive are left out. Calls come from the whole dose curve; as a rule, active = well fitted inhibition curve with a large enough effect; inconclusive = small, poorly fitted or top-dose-only effect; inactive = flat fitted curve, though single readings scatter. A number of entries come with more than one value. Only these are listed. An entry can have further records. The records of an entry are repeated measurements (runs, samples, wells, individuals or studies).

Key:
[1] = qHTS assay for small molecule antagonists of peroxisome proliferator-activated receptor delta signaling (AID 588535); settings: HEK293T PPARd-UAS-bla, beta-lactamase FRET ratio, 18 h; 460 nm channel;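 note: cells co-treated with a PPAR-delta agonist as stimulator during compound exposure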
Summary of the method: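 Compounds tested in titration on PPAR-delta-UAS-bla HEK293T cells grown in charcoal/dextran-stripped serum (2%); beta-lactamase activity read via CCF4 emission at 460 and 530 nm.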

HaCat = test: Cytotoxic Profiling of Annotated Libraries Using Quantitative High-Throughput Screening (AID 1296008); settings: Five cell lines viability, CellTiter-Glo ATP luminescence, 48-72 h, stronger effect = lower value; note: % is set by controls: 0 for no effect and ±100 for the full control effect; nearly all actives have a fitted effect of over 60% in size
Summary of the method: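 Compounds were pin-transferred onto cells and incubated 48 or 72 hr at 37 degree Celsius, 95% humidity. CellTiter-Glo was added, plates sat 10 min at room temperature, then ATP-coupled luminescence was imaged as the viability read-out.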

Row | SMILES | max response [1] | max response (HaCat)
1 | CC1(C)C(C=C(Cl)Cl)C1C(=O)OCc1cccc(Oc2ccccc2)c1 (configuration not stated) | -4.95, 25.4, 37.3, 25% [separate samples] | –
2 | Cc1c(-c2ccnn2C)cc(C(=O)NCc2ccc(S(C)(=O)=O)cn2)c(=O)n1-c1cccc(C(F)(F)F)c1 | – | inactive: -24.5, -1.68, -4.8, 3.37% [separate samples]
